The record followed here is the RNAGym collection of RNA variant scans (doi:10.1093/nar/gkz1192).

The source gives no read counts; variants with many changes may rest on few reads.

The chains are these.
B1: CPEB3 Ribozyme (parent)
chain: UAACAGGGGGCCACAGCAGAAGCGUUCACGUCGCAGCCCCUGUCAGAUUCUGGUGAAUCUGCGAAUUCUGCUGUAUAUCUC

The variants in this series derive from B1. The series can be described thus: self-cleavage, relative activity (ratio to wild type); higher = more cleavage; in vitro, sequencing. The method, boiled down: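 Relative activity was defined as the cleaved/total read fraction for a variant divided by the same fraction for the unmutated ribozyme. CPEB3 self-cleaving ribozyme libraries were made by rounds of error-prone PCR, barcoded, and transcribed in vitro with T7 RNA polymerase for 5 hours at 37°C, and cleavage ran through transcription plus a 15 min DNase I step before EDTA. Illumina sequencing of template-switched reverse transcripts gave the reads, and DNA sequencing mapped the barcodes. Averages come from three batches, using variants with at least 5 reads.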
Take UAACAGGGGGCCACAGCAGAAGCGUUCUCGUCUCAGCCCCUGUCAGAUUCUGGUGAAUCUGCGAAUUCUGCUGUACAUCUC [A28U G33U U76C]: the self-cleavage was determined as 0.43. As to UAACAGGGGGCCACAGCAGAAGCGUUCUCGUCGCAGCCCCUGUCAGAUUCUGGUGGAUCUGCGAGUUCUGCUGUAUUUCUC [A28U A56G A65G A77U], the self-cleavage is 0.15.

For UAACAGGGGGCCACAGCAGAAGCGUUCUCGUCGCAGCCGCUGUCAGCUUCUGGUGAAUCUGCGAAUUCUGCAGUAUAUCUC [A28U C39G A47C U72A], the self-cleavage was 0.09. Take UAACAGGGGGCCACAGCAGAAGCGUUCUCGUCGCUGCCCCUGUCAGAUUCUGGUGAAUCUGCGAAUUCUGCUGUCUAUCUC [A28U A35U A75C]: the self-cleavage was determined as 0.44. Next, UAACAGGGGGCCACAGCAGAAGCGUUCUCGUCGCAGCCCCUGUCAGAUUCUGGUGAAUCUACGAAUUCUGCUGUAUUUCUC [A28U G61A A77U]: 0.61; UAACAGGGGGCCACAGCAGAAGCGUUCUCCUCUCAGCCCCUGUCAGAUUCUGGCGAAUCUGCGAAUUCUGCUGUUUAUCUC [A28U G30C G33U U54C A75U]: 0.13; UAACAGGGGGCCACAGCAGAAGCGUUCUCGUCGCAGCCCCUGUCAUAUUCUGGUGAAUCUGUGAAUUCUGCUGUAUAUCUC [A28U G46U C62U]: 0.15. On to UAACAGGGGGCCACAGCAGAAGCGUUCUCGUCGCAGCCCCUGUCAGAUUCUGGUGGAUCUGCGUAUUCUGCUGUAUAUCCC [A28U A56G A64U U80C], for which the self-cleavage worked out at 0.31.

Turning to UAACAGGGGGCCACAGCAGAAGCGUUCUCGUCGCAGCCCUUGUCAGAUCCUGGCGGAUCUGCGAGUUCUGCUGUAUAUCUC [A28U C40U U49C U54C A56G A65G], the self-cleavage came to 0.07.

As for UAACAGGGGGCCACAGCAGAAGCGUUCUCGUCGCUGCCCCUGUCAGAUUCUGGUGAGUCUGCGAAUACUGCUGUAUUUCUC [A28U A35U A57G U67A A77U], the self-cleavage amounted to 0.11. As to UAACAGGGGGCCACAGCAGAAGCGUUCUCGUCGCAGCCCAUGUCAGAUUCUGGUGAAUCUGCUAAUUCUGCUGUAUAUCUC [A28U C40A G63U], the self-cleavage worked out at 0.22. Consider UAACAGGGGGCCACAGCAGAAGCGUUCUCGCCGCAGCCCCUGUCAGAUUCUGGUGAAUCUGCGGGUUCUGCUGUAUAUCAC [A28U U31C A64G A65G U80A], for which the self-cleavage is 0.09.

In the case of UAACAGGGGGCCACAGCAGAAGCGUUCUCGUCGCAGCCCCUGUCAGUUUCUGGUGAGUCUGCGAAUUCUGCAGUAUAUCUC [A28U A47U A57G U72A], the self-cleavage was found to be 0.11. With UAACAGGGGGCCACAGCAGAAGCGUUCUCGUCGCAGCCCCCGUCAGGUUCAGGUGAAUCUGCGAAUUCCGCUGUAUAUCUC [A28U U41C A47G U51A U69C], the self-cleavage is 0.57.

Regarding UAACAGGGGGCCACAGCAGAAGCGUUCUCGUCGCAGCCCCUGUCAGAUUCUGGUGGAUCUGCGAAUUCUGCUGUAUUUCUC [A28U A56G A77U], the self-cleavage worked out at 0.73. Turning to UAACAGGGGGCCACAGCAGAAGCGUUCUCGUCGCAGCCCCAGUCAGAUACUGGUGAAUCUGCGAAUUCUGCUGAAUAUCUC [A28U U41A U49A U74A], the self-cleavage was found to be 0.1. Turning to UAACAGGGGGCCACAGCAGAAGCGUUCGCGUCGCAGCCCCUGUCAGAUUCUGGUGAAUCCGCGAAUUCUGCUGCAUGUCUC [A28G U60C U74C A77G], the self-cleavage amounted to 0.22. Next, UAACAGGGGGCCACAGCAGAAGCGUUCUCGUCGCAGCCCCUGUCAGAUUCUGGUGAAUAUGCGAAUCCUGCUGUAUAUCUC [A28U C59A U67C]: 0.14; UAACAGGGGGCCACAGCAGAAGCGUUCUCGUCGCAGCCCCUGCCAGAUUCUGGUGAAUCUGCGAGUUCUGCUGUAUGUCUC [A28U U43C A65G A77G]: 0.15; UAACAGGGGGCCACAGCAGAAGCGUUCUCGUCGCAGCCCCUGUCAGAUUCUGGUUAAUCUGCGGAUUCUGCUGUAUAUCUC [A28U G55U A64G]: 0.59. For UAACAGGGGGCCACAGCAGAAGCGUUCUCGUCGCAGCUCCUGUCAGAUCCUGGAGAAUCUGCGAAUUCUGCUGUACAUCUC [A28U C38U U49C U54A U76C], the self-cleavage was 0.12. Next, UAACAGGGGGCCACAGCAGAAGCGUUCUCGUCGCAGCCCCAGUCAGGUUCUGGUGAAUCUGCGAAUUCUGCCGUAUAUCUC [A28U U41A A47G U72C]: 0.13; UAACAGGGGGCCACAGCAGAAGCGUUCGCGUCGCAGCCCCUGUCAGAUUCUGGUGAAUCUGCGAAUUCUGCUGAGUAUCUC [A28G U74A A75G]: 0.69. As to UAACAGGGGGCCACAGCAGAAGCGUUCUCCUCGCGGCCCCUGUCAGAUUCUGGUGGAUCUGCGAAUUCUGCUGUAUACCUC [A28U G30C A35G A56G U78C], the self-cleavage is 0.07. Turning to UAACAGGGGGCCACAGCAGAAGCGUUCUCGUCGCAGACCCUGUCAGAUUCUGGUGAAUCUGCGGGUUCUGCUGUGUAUCUC [A28U C37A A64G A65G A75G], the self-cleavage came out at 0.07. For UAACAGGGGGCCACAGCAGAAGCGUUCUCGGCGCAGCCCCUGUCAGAUUCCGGUGAAUCUGCGAAUUCUGCUGUAUAUCUC [A28U U31G U51C], the self-cleavage amounted to 0.64. For UAACAGGGGGCCACAGCAGAAGCGUUCUCGUCGCAGCCACUGUCCGAUUCUGGUGAACCUGCGAAUUCUGCUGUAUAUCUC [A28U C39A A45C U58C], the self-cleavage turned out to be 0.13. Next, UAACAGGGGGCCACAGCAGAAGCGUUCUCGUCGCGGCCCCUGUCAGAUUCUGGUGAAUCUGCGAACUCUGCUGUAUAUCUC [A28U A35G U66C]: 0.87; UAACAGGGGGCCACAGCAGAAGCGUUCGCGUCGCAGCCCCUGUCAGAUUCUGGUGAAUCUGCGAACCCGGCUGCAUAUCUC [A28G U66C U67C U69G U74C]: 0.15. Then UAACAGGGGGCCACAGCAGAAGCGUUCUCGUCGCAGCCCCUGUCAGAUUCUGGUGGAUCAGCGAUUUCUGCUGUAUAUCUC [A28U A56G U60A A65U], with 0.3. Regarding UAACAGGGGGCCACAGCAGAAGCGUUCUCGCCGCAGCCCCUGUCGGAUUCUGGUGAAUCUGCGAAUACUGCUGUAUAUCUC [A28U U31C A45G U67A], the self-cleavage was 0.1. As for UAACAGGGGGCCACAGCAGAAGCGUUCUCGUCGCGGCCCCAGUCAGAUUCUGGUGAAUCUGCGAAUUCUGCCGUAUAUCUC [A28U A35G U41A U72C], the self-cleavage amounted to 0.17.

Consider UAACAGGGGGCCACAGCAGAAGCGUUCUCGACGCAGCCCUUGUCAGACUCUGGUGAAUCUGCGAAUUCUGCAGUAUAUCUC [A28U U31A C40U U48C U72A], for which the self-cleavage is 0.19. With UAACAGGGGGCCACAGCAGAAGCGUUCUCGUCGCAGCCCCUGUCAGAUUCUGGUGGAUCUGCGAAUUCCGCUGUAUAUCUC [A28U A56G U69C], the self-cleavage came to 0.31.
